# Measured values: the supplement of paper PMC4967469
# By IC50 is meant the dose at which the fit gives 50% viability; fits outside the tested doses are given as limits. AUC sums up the same curve from the lowest dose to the 256-fold higher top dose; the more sensitive the line, the further below 1. For part of these data: Where the top dose is marked as inferred, it is not printed in the source and was worked back from the curve model. For part of these data: Drugs with an entry number were screened twice under separate entries, and the two screens often disagree.
# Legend:
# Test in all cases: Viability of human cancer cell lines after 72 h of drug (GDSC screen)
# [1] = compound: Fc1cc(-c2ccnc(Nc3ccc(-n4cnc(N5CCOCC5)n4)cc3)n2)cc(N2CCOCC2)c1 [JNK-9L]; conditions: top dose 5.12 µM; top dose inferred
# Experimental: (§1)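 Human cancer cell lines in 384-well plates, medium with 10% serum, drug for 72 h over a 256-fold dose range (nine 2-fold or five 4-fold steps up to the top dose). Adherent lines were fixed and stained with the nucleic acid dye Syto60, suspension lines read with resazurin; signal relative to control wells, capped at 0 and 100%. One two-parameter sigmoid per drug and line, fitted in a mixed model over all curves with the slope shared within a line.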
# [2] = compound: O=c1[nH]cc(F)c(=O)[nH]1 [5-Fluorouracil]; conditions: top dose 32 µM; top dose inferred
# Experimental: as §1
# [3] = compound: NCC(=O)Nc1ccc(-n2nc(C(F)(F)F)cc2-c2ccc3c(ccc4ccccc43)c2)cc1 [OSU-03012]; conditions: top dose 16 µM; top dose inferred
# Experimental: as §1
# [4] = compound: OC[C@H](Cc1ccccc1)Nc1nc(Oc2ccc3c(c2)CCC3)nc2c1ncn2Cc1ccc(-c2ccccc2)cc1 [QS11]; conditions: top dose 10.24 µM
# Experimental: as §1
# [5] = compound: CC(C)(C)c1cc(NC(=O)Nc2ccc(-c3cn4c(n3)sc3cc(OCCN5CCOCC5)ccc34)cc2)no1 [AC220]; conditions: top dose 1.024 µM; top dose inferred
# Experimental: as §1
# [6] = compound: C#Cc1cccc(Nc2ncnc3cc(OC)c(OCCCCCCC(=O)NO)cc23)c1 [CUDC-101]; conditions: top dose 5.12 µM; top dose inferred
# Experimental: as §1
# [7] = compound: COc1cc(F)c(F)c(Nc2ccc(I)cc2F)c1NS(=O)(=O)C1(C[C@H](O)CO)CC1 [RDEA119]; conditions: top dose 5 µM, top dose inferred
# Experimental: as §1
cell line,measurement,setting,value
"KP-3 (pancreas, adherent)",AUC,[1],0.596
same,IC50,[1],0.618 µM
same,AUC,[2],0.859
same,IC50,[2],> 32 µM
same,AUC,[3],0.832
same,IC50,[3],13.1 µM
same,AUC,[4],0.961
same,IC50,[4],> 10.2 µM
same,AUC,[5],0.976
same,IC50,[5],> 1.02 µM
same,AUC,[6],0.779
same,IC50,[6],2.52 µM
same,AUC,[7]; screen: GDSC drug entry 1014,0.746
same,IC50,[7]; screen: GDSC drug entry 1014,1.85 µM
same,AUC,[7]; screen: GDSC drug entry 1526,0.832
same,IC50,[7]; screen: GDSC drug entry 1526,4.09 µM
"KP-N-YN (neuroblastoma, adherent)",AUC,[1],0.684
same,IC50,[1],1.11 µM
same,AUC,[2],0.969
same,IC50,[2],> 32 µM
same,AUC,[3],0.955
same,IC50,[3],> 16 µM
same,AUC,[4],0.973
same,IC50,[4],> 10.2 µM
same,AUC,[5],0.983
same,IC50,[5],> 1.02 µM
same,AUC,[6],0.61
same,IC50,[6],0.664 µM
same,AUC,[7]; screen: GDSC drug entry 1014,0.97
same,IC50,[7]; screen: GDSC drug entry 1014,> 5 µM
same,AUC,[7]; screen: GDSC drug entry 1526,0.945
same,IC50,[7]; screen: GDSC drug entry 1526,> 5 µM
"KS-1 (glioma, adherent)",AUC,[1],0.413
same,IC50,[1],0.175 µM
same,AUC,[2],0.888
same,IC50,[2],> 32 µM
same,AUC,[3],0.751
same,IC50,[3],6.44 µM
same,AUC,[4],0.962
same,IC50,[4],> 10.2 µM
same,AUC,[5],0.977
same,IC50,[5],> 1.02 µM
same,AUC,[6],0.525
same,IC50,[6],0.381 µM
same,AUC,[7]; screen: GDSC drug entry 1014,0.664
same,IC50,[7]; screen: GDSC drug entry 1014,1 µM
same,AUC,[7]; screen: GDSC drug entry 1526,0.794
same,IC50,[7]; screen: GDSC drug entry 1526,2.96 µM
"KU812 (chronic myeloid leukaemia, suspension)",AUC,[1],0.512
same,IC50,[1],0.343 µM
same,AUC,[2],0.977
same,IC50,[2],> 32 µM
same,AUC,[3],0.721
same,IC50,[3],3.97 µM
same,AUC,[4],0.5
same,AUC,[5],0.988
same,IC50,[5],> 1.02 µM
same,AUC,[6],0.022
same,IC50,[6],< 0.02 µM
same,AUC,[7]; screen: GDSC drug entry 1014,0.405
same,IC50,[7]; screen: GDSC drug entry 1014,0.176 µM
same,AUC,[7]; screen: GDSC drug entry 1526,0.459
same,IC50,[7]; screen: GDSC drug entry 1526,0.244 µM
"KU-19-19 (bladder, adherent)",AUC,[1],0.781
same,IC50,[1],2.12 µM
same,AUC,[2],0.982
same,IC50,[2],> 32 µM
same,AUC,[3],0.984
same,IC50,[3],> 16 µM
same,AUC,[4],0.956
same,IC50,[4],> 10.2 µM
same,AUC,[5],0.987
same,IC50,[5],> 1.02 µM
same,AUC,[6],0.653
same,IC50,[6],0.85 µM
same,AUC,[7]; screen: GDSC drug entry 1014,0.346
same,IC50,[7]; screen: GDSC drug entry 1014,0.117 µM
same,AUC,[7]; screen: GDSC drug entry 1526,0.573
same,IC50,[7]; screen: GDSC drug entry 1526,0.495 µM
"KURAMOCHI (ovary, adherent)",AUC,[1],0.58
same,IC50,[1],0.548 µM
same,AUC,[2],0.907
same,IC50,[2],> 32 µM
same,AUC,[3],0.592
same,IC50,[3],1.87 µM
same,AUC,[4],0.776
same,IC50,[4],4.73 µM
same,AUC,[5],0.98
same,IC50,[5],> 1.02 µM
same,AUC,[6],0.652
same,IC50,[6],0.909 µM
same,AUC,[7]; screen: GDSC drug entry 1014,0.91
same,IC50,[7]; screen: GDSC drug entry 1014,> 5 µM
same,AUC,[7]; screen: GDSC drug entry 1526,0.883
same,IC50,[7]; screen: GDSC drug entry 1526,> 5 µM
"KY821 (leukaemia, suspension)",AUC,[1],0.797
same,IC50,[1],2.07 µM
same,AUC,[2],0.849
same,IC50,[2],19.5 µM
same,AUC,[3],0.848
same,IC50,[3],9.68 µM
same,AUC,[4],0.985
same,IC50,[4],> 10.2 µM
same,AUC,[5],0.989
same,IC50,[5],> 1.02 µM
same,AUC,[6],0.598
same,IC50,[6],0.573 µM
same,AUC,[7]; screen: GDSC drug entry 1014,0.432
same,IC50,[7]; screen: GDSC drug entry 1014,0.209 µM
same,AUC,[7]; screen: GDSC drug entry 1526,0.906
same,IC50,[7]; screen: GDSC drug entry 1526,> 5 µM
"KYM-1 (rhabdomyosarcoma, adherent)",AUC,[1],0.525
same,IC50,[1],0.371 µM
same,AUC,[2],0.978
same,IC50,[2],> 32 µM
same,AUC,[3],0.84
same,IC50,[3],8.8 µM
same,AUC,[4],0.911
same,IC50,[4],> 10.2 µM
same,AUC,[5],0.991
same,IC50,[5],> 1.02 µM
same,AUC,[6],0.76
same,IC50,[6],1.57 µM
same,AUC,[7]; screen: GDSC drug entry 1014,0.964
same,IC50,[7]; screen: GDSC drug entry 1014,> 5 µM
same,AUC,[7]; screen: GDSC drug entry 1526,0.966
same,IC50,[7]; screen: GDSC drug entry 1526,> 5 µM
"KYSE-50 (oesophagus, adherent)",AUC,[1],0.426
same,IC50,[1],0.205 µM
same,AUC,[2],0.877
same,IC50,[2],27.4 µM
same,AUC,[3],0.47
same,IC50,[3],0.833 µM
same,AUC,[4],0.815
same,IC50,[4],5.01 µM
same,AUC,[5],0.988
same,IC50,[5],> 1.02 µM
same,AUC,[6],0.565
same,IC50,[6],0.475 µM
same,AUC,[7]; screen: GDSC drug entry 1014,0.966
same,IC50,[7]; screen: GDSC drug entry 1014,> 5 µM
same,AUC,[7]; screen: GDSC drug entry 1526,0.941
same,IC50,[7]; screen: GDSC drug entry 1526,> 5 µM
"KYSE-70 (oesophagus, adherent)",AUC,[1],0.616
same,IC50,[1],0.689 µM
same,AUC,[2],0.912
same,IC50,[2],> 32 µM
same,AUC,[3],0.592
same,IC50,[3],1.84 µM
same,AUC,[4],0.886
same,IC50,[4],> 10.2 µM
same,AUC,[5],0.984
same,IC50,[5],> 1.02 µM
same,AUC,[6],0.747
same,IC50,[6],1.77 µM
same,AUC,[7]; screen: GDSC drug entry 1526,0.883
same,IC50,[7]; screen: GDSC drug entry 1526,> 5 µM
"KYSE-140 (oesophagus, adherent)",AUC,[1],0.59
same,IC50,[1],0.583 µM
same,AUC,[2],0.982
same,IC50,[2],> 32 µM
same,AUC,[3],0.567
same,IC50,[3],1.57 µM
same,AUC,[4],0.818
same,IC50,[4],6.8 µM
same,AUC,[5],0.983
same,IC50,[5],> 1.02 µM
same,AUC,[6],0.977
same,IC50,[6],> 5.12 µM
same,AUC,[7]; screen: GDSC drug entry 1014,0.847
same,IC50,[7]; screen: GDSC drug entry 1014,4.42 µM
"KYSE-150 (oesophagus, adherent)",AUC,[1],0.608
same,IC50,[1],0.623 µM
same,AUC,[2],0.792
same,IC50,[2],13.9 µM
same,AUC,[3],0.615
same,IC50,[3],2.04 µM
same,AUC,[4],0.861
same,IC50,[4],8.11 µM
same,AUC,[5],0.989
same,IC50,[5],> 1.02 µM
same,AUC,[6],0.755
same,IC50,[6],1.68 µM
same,AUC,[7]; screen: GDSC drug entry 1014,0.841
same,IC50,[7]; screen: GDSC drug entry 1014,3.28 µM
same,AUC,[7]; screen: GDSC drug entry 1526,0.96
same,IC50,[7]; screen: GDSC drug entry 1526,> 5 µM
"KYSE-180 (oesophagus, adherent)",AUC,[1],0.462
same,IC50,[1],0.254 µM
same,AUC,[2],0.556
same,IC50,[2],2.82 µM
same,AUC,[3],0.608
same,IC50,[3],1.96 µM
same,AUC,[4],0.875
same,IC50,[4],9.29 µM
same,AUC,[5],0.988
same,IC50,[5],> 1.02 µM
same,AUC,[6],0.473
same,IC50,[6],0.271 µM
same,AUC,[7]; screen: GDSC drug entry 1526,0.968
same,IC50,[7]; screen: GDSC drug entry 1526,> 5 µM
"KYSE-220 (oesophagus, adherent)",AUC,[1],0.606
same,IC50,[1],0.635 µM
same,AUC,[2],0.922
same,IC50,[2],> 32 µM
same,AUC,[3],0.754
same,IC50,[3],5.67 µM
same,AUC,[4],0.948
same,IC50,[4],> 10.2 µM
same,AUC,[5],0.982
same,IC50,[5],> 1.02 µM
same,AUC,[6],0.602
same,IC50,[6],0.62 µM
same,AUC,[7]; screen: GDSC drug entry 1014,0.843
same,IC50,[7]; screen: GDSC drug entry 1014,3.86 µM
same,AUC,[7]; screen: GDSC drug entry 1526,0.831
same,IC50,[7]; screen: GDSC drug entry 1526,3.42 µM
"KYSE-270 (oesophagus, adherent)",AUC,[1],0.475
same,IC50,[1],0.276 µM
same,AUC,[2],0.77
same,IC50,[2],10.5 µM
same,AUC,[3],0.634
same,IC50,[3],2.2 µM
same,AUC,[4],0.677
same,IC50,[4],1.84 µM
same,AUC,[5],0.984
same,IC50,[5],> 1.02 µM
same,AUC,[6],0.572
same,IC50,[6],0.488 µM
same,AUC,[7]; screen: GDSC drug entry 1526,0.928
same,IC50,[7]; screen: GDSC drug entry 1526,> 5 µM
"KYSE-410 (oesophagus, adherent)",AUC,[1],0.597
same,IC50,[1],0.601 µM
same,AUC,[2],0.829
same,IC50,[2],21.8 µM
same,AUC,[3],0.585
same,IC50,[3],1.74 µM
same,AUC,[4],0.818
same,IC50,[4],6.29 µM
same,AUC,[5],0.984
same,IC50,[5],> 1.02 µM
same,AUC,[6],0.733
same,IC50,[6],1.56 µM
same,AUC,[7]; screen: GDSC drug entry 1014,0.709
same,IC50,[7]; screen: GDSC drug entry 1014,1.27 µM
"KYSE-450 (oesophagus, adherent)",AUC,[1],0.491
same,IC50,[1],0.303 µM
same,AUC,[2],0.504
same,IC50,[2],2.04 µM
same,AUC,[3],0.614
same,IC50,[3],2.02 µM
same,AUC,[4],0.869
same,IC50,[4],8.57 µM
same,AUC,[5],0.987
same,IC50,[5],> 1.02 µM
same,AUC,[6],0.379
same,IC50,[6],0.152 µM
same,AUC,[7]; screen: GDSC drug entry 1014,0.89
same,IC50,[7]; screen: GDSC drug entry 1014,> 5 µM
same,AUC,[7]; screen: GDSC drug entry 1526,0.942
same,IC50,[7]; screen: GDSC drug entry 1526,> 5 µM
